Assay results as given in the supplement of paper PMC9446081.
Hit rate of the full screen: of about 39,000 compounds, about 220 (0.56%) showed activity. The list shows a part of the results.

system: Escherichia coli K-12 BW25113; assay: relative growth (OD600 normalised to plate interquartile mean) (fraction); higher = less growth inhibition, active = 0.2 or less; conditions: 50 µM; LB; incubation time: overnight (16-24 h)
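Also: static incubation at 37 °C against the wild-type strain, values averaged over two biological replicates.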

Row | SMILES | relative growth
1 | COc1ccc(NC(=O)N(C)C[C@@H]2Oc3c(NC(=O)c4cnccn4)cccc3C(=O)N([C@@H](C)CO)C[C@@H]2C)cc1 | inactive: 1.03
2 | COc1ccc(C(=O)NCc2ccc(OCCN(C)C)cc2)cc1OC | inactive: 1.12
3 | C[C@@H]1CN([C@H](C)CO)C(=O)c2cc(NS(=O)(=O)c3cn(C)cn3)ccc2O[C@@H](C)CCCCO[C@@H]1CN(C)S(=O)(=O)c1ccccc1 | inactive: 1.04
4 | COc1ccccc1O[C@@H](C)C(=O)NN | inactive: 1.01
5 | CC(C)NC(=O)N(C)C[C@H]1Oc2ccc(NC(=O)C3CCCCC3)cc2CC(=O)N([C@@H](C)CO)C[C@H]1C | inactive: 0.991
6 | CN(C)C(=O)C[C@H]1C=C[C@H](NC(=O)C2CC2)[C@@H](CO)O1 | inactive: 0.971
7 | COC(=O)[C@@H]1N2C(=O)[C@@H](N3C[C@](C)(OC)O[C@@H](Cc4ccccc4)[C@H]3/C=C/C3CC3)[C@H]2SC1(C)C | inactive: 1.04
8 | C[C@H]1CN([C@@H](C)CO)C(=O)c2cc(NC(=O)Nc3ccc(C(F)(F)F)cc3)ccc2O[C@H]1CN(C)S(=O)(=O)c1ccc(Cl)cc1 | inactive: 1.04
9 | O=C(NO)c1ccc(C(=O)N/N=C/[C@@H](O)[C@@H](O)[C@H](O)[C@H](O)CO)cc1 | inactive: 1
10 | C[C@@H]1CN([C@H](C)CO)C(=O)Cc2cc(NC(=O)Nc3ccc(F)cc3)ccc2O[C@H]1CN(C)S(C)(=O)=O | inactive: 1
11 | O=C(CCCCCC(=O)N/N=C/[C@@H](O)[C@H](O)[C@H](O)CO)NO | inactive: 0.999
12 | C[C@@H]1CCCCO[C@H](CN(C)C(=O)Nc2ccc(F)cc2)[C@H](C)CN([C@@H](C)CO)C(=O)c2cc(NC(=O)Nc3ccc4c(c3)OCO4)ccc2O1 | inactive: 1.03
13 | CC(C)N1C[C@@H](C)[C@H](CN(C)Cc2ccc(Oc3ccccc3)cc2)Oc2c(C(=O)Nc3ccncc3)cccc2C1=O | inactive: 1.02
14 | C[C@@H]1CN([C@@H](C)CO)C(=O)c2cc(NC(=O)Cc3ccccc3)ccc2O[C@@H](C)CCCCO[C@@H]1CN(C)Cc1ccccc1 | inactive: 0.946
15 | C[C@H]1CN([C@@H](C)CO)C(=O)c2cc(-c3ccc(C(=O)N(C)C)cc3)cnc2O[C@H]1CN(C)C(=O)c1ccncc1 | inactive: 0.964
16 | C[C@H](CO)N1C[C@H](C)[C@H](CN(C)C(=O)CCC(F)(F)F)OCCCC[C@H](C)Oc2ccc(NS(=O)(=O)c3ccccc3)cc2C1=O | inactive: 0.988
17 | C[C@@H]1CN([C@H](C)CO)C(=O)Cc2cc(NC(=O)CCN3CCOCC3)ccc2O[C@@H]1CN(C)S(C)(=O)=O | inactive: 1.03
18 | COc1ccc(COC[C@]23N=C4Sc5ccc([N+](=O)[O-])cc5C(=O)N4[C@H](c4ccccc4O2)[C@H]3COC(=O)c2ccccc2)cc1 | inactive: 1.01
19 | C[C@@H]1CN([C@H](C)CO)C(=O)c2cccc(NC(=O)c3nc4ccccc4s3)c2O[C@H]1CN(C)C(=O)Nc1ccc(C(F)(F)F)cc1 | inactive: 0.923
20 | C[C@H]1CN([C@@H](C)CO)C(=O)c2cccc(NC(=O)Nc3ccc(F)cc3)c2O[C@@H]1CN(C)Cc1ccc(C(=O)Nc2ccccc2N)cc1 | inactive: 1.01
21 | CO[C@H]1CN(C)C(=O)c2ccc(NS(=O)(=O)c3cn(C)cn3)cc2OC[C@H](C)N(CC2CC2)C[C@@H]1C | inactive: 0.997

Row | SMILES | relative growth
22 | C[C@@H]1CN([C@H](C)CO)C(=O)c2ccccc2-c2ccccc2CO[C@H]1CN(C)C(=O)Nc1cccc(C(F)(F)F)c1 | inactive: 0.986
23 | C[C@@H]1CN([C@@H](C)CO)S(=O)(=O)c2ccc(C#CCN(C)C)cc2O[C@H]1CN(C)C(=O)Nc1ccccc1F | inactive: 0.982
24 | COc1ccccc1S(=O)(=O)N(C)C[C@H]1OCc2cn(nn2)CCCC(=O)N([C@@H](C)CO)C[C@@H]1C | inactive: 0.986
25 | CCOC(=O)[C@@H]1[C@H](Cc2ccccc2)[C@H]2c3cc(OC)c(OC)cc3CCN2C(=O)N1c1ccc(OC)cc1 | inactive: 1.02
26 | Cn1cnc(S(=O)(=O)N2C[C@H](O)COC[C@H]3O[C@@H](CC(=O)NC4CCCC4)CC[C@@H]32)c1 | inactive: 1.03
27 | OC[C@H]1O[C@@](CO)(O[C@@H]2O[C@H](CO)[C@@H](O)[C@H](O)[C@H]2O)[C@@H](O[C@@H]2O[C@H](CO)[C@@H](O)[C@H](O)[C@H]2O)[C@@H]1O | inactive: 1
28 | CCCNC(=O)N1C[C@@H]2[C@H](c3ccccc31)[C@H](CO)N2C(=O)CN1CCOCC1 | inactive: 1.02
29 | O=C(CO)c1ccccc1 | inactive: 1.04
30 | COc1ccc(NC(=O)Nc2ccc3c(c2)CC(=O)N([C@H](C)CO)C[C@@H](C)[C@H](CN(C)Cc2ccc(C(=O)Nc4ccccc4N)cc2)O3)cc1 | inactive: 1.02
31 | CNC[C@H]1OCCCC[C@H](C)Oc2ccc(NS(=O)(=O)c3c(C)noc3C)cc2C(=O)N([C@H](C)CO)C[C@@H]1C | inactive: 1.02
32 | Cn1cnc(S(=O)(=O)N2C[C@H](O)COC[C@H]3O[C@@H](CC(=O)NCc4cccc(F)c4)CC[C@@H]32)c1 | inactive: 0.984
33 | C[C@H]1CN([C@@H](C)CO)C(=O)c2cc(NC(=O)Nc3ccc(C(F)(F)F)cc3)ccc2O[C@H]1CN(C)S(=O)(=O)c1ccc(F)cc1 | inactive: 1.04
34 | c1cncc(OCc2nnn3c2CNCCC3)c1 | inactive: 1
35 | C[C@H](CO)N1C[C@H](C)[C@H](CN(C)C(=O)Nc2ccc(C(F)(F)F)cc2)Oc2ccc(NC(=O)Nc3ccc(F)cc3)cc2CC1=O | inactive: 1.02
36 | C[C@H](CO)N1C[C@H](C)[C@@H](CN(C)Cc2cccc(F)c2)Oc2cc(C#CC3CC3)ccc2S1(=O)=O | inactive: 1.04
37 | Cc1ccc(S(=O)(=O)N(C)C[C@H]2Oc3ccc(N(C)C)cc3CC(=O)N([C@@H](C)CO)C[C@@H]2C)cc1 | inactive: 0.998
38 | C[C@@H]1CN([C@H](C)CO)S(=O)(=O)c2ccc(C#Cc3ccncc3)cc2O[C@@H]1CN(C)C(=O)C1CCOCC1 | inactive: 1
39 | COc1ccc(S(=O)(=O)Nc2ccc3c(c2)CC(=O)N([C@@H](C)CO)C[C@@H](C)[C@H](CN(C)C(=O)Nc2c(C)noc2C)O3)cc1 | inactive: 0.993
40 | C[C@H]1CN([C@@H](C)CO)C(=O)Cc2cc(NC(=O)Nc3cccc4ccccc34)ccc2O[C@H]1CN(C)Cc1ccc(-c2ccccc2)cc1 | inactive: 0.973
41 | Nc1nnc(CC(=O)O)[nH]1 | inactive: 1.03
42 | CCOC(=O)[C@H]1C/C=C/C[C@H](C(=O)OCC)C(=O)O[C@H]2[C@@H](OC)O[C@H](CO)[C@@H](OC(=O)Nc3ccc(Br)cc3)[C@@H]2OC1=O | inactive: 1.02

Row | SMILES | relative growth
43 | COc1ccc(S(=O)(=O)Nc2cccc3c2O[C@H](CN(C)Cc2ccc(Oc4ccccc4)cc2)[C@@H](C)CN([C@@H](C)CO)C3=O)cc1 | inactive: 1.02
44 | C[C@H](CO)N1C[C@H](C)[C@@H](CN(C)Cc2ccc(Cl)c(Cl)c2)OCCCC[C@H](C)Oc2ccc(NS(C)(=O)=O)cc2C1=O | inactive: 1.01
45 | COCC#Cc1ccc([C@@H]2[C@H]3CN(C(=O)C4CCOCC4)CC(=O)N3[C@H]2CO)cc1 | inactive: 0.926
46 | CC(C)N1C[C@H](C)[C@@H](CN(C)Cc2ccc(Oc3ccccc3)cc2)Oc2c(NC(=O)C3CCN(C)CC3)cccc2C1=O | inactive: 0.958
47 | COc1cccc(-c2cn(CC[C@@H]3CC[C@H](NC(=O)CN(C)C)[C@@H](CO)O3)nn2)c1 | inactive: 0.994
48 | Cc1ccc(O)c(C(C)(C)C)c1 | inactive: 0.97
49 | Cc1cccc(=O)n1CCCCN | inactive: 1.02
50 | COc1ccc(S(=O)(=O)N(C)C[C@H]2Oc3ccc(NC(=O)CCC(F)(F)F)cc3CC(=O)N([C@H](C)CO)C[C@H]2C)cc1 | inactive: 1.03
51 | CC(C)CC#Cc1cnc2c(c1)C(=O)N([C@@H](C)CO)C[C@@H](C)[C@H](CN(C)S(=O)(=O)c1ccccc1)O2 | inactive: 1.02
52 | C[C@H](CO)N1C[C@H](C)[C@@H](CN(C)C(=O)c2cccnc2)Oc2cc(C#CC3(O)CCCC3)ccc2S1(=O)=O | inactive: 0.994
53 | COc1cccc(NC(=O)N(C)C[C@H]2Oc3cc(C#Cc4ccncc4)ccc3S(=O)(=O)N([C@@H](C)CO)C[C@@H]2C)c1 | inactive: 1.02
54 | O=C(C[C@@H]1C[C@@H]2c3cc(NS(=O)(=O)c4ccc(F)cc4)ccc3O[C@@H]2[C@@H](CO)O1)NCCc1ccccc1 | inactive: 1.03
55 | C[C@H]1CN([C@@H](C)CO)C(=O)c2c(c3ccccc3n2C)-c2ccccc2CO[C@H]1CN(C)S(C)(=O)=O | inactive: 0.986
56 | C[C@H](CO)N1C[C@H](C)[C@H](CN(C)Cc2ccc3c(c2)OCO3)Oc2ccc(NS(=O)(=O)c3cn(C)cn3)cc2CC1=O | inactive: 1.01
57 | NS(=O)(=O)c1ccc(NC(=O)[C@H]2CCCNC2=O)cc1 | inactive: 1.04
58 | CNCC(O)C(O)C(O)C(O)CO (configuration not stated) | inactive: 1.07
59 | C[C@H]1CN([C@@H](C)CO)C(=O)Cc2cc(NS(=O)(=O)c3cn(C)cn3)ccc2O[C@@H]1CN(C)C(=O)Nc1ccc2c(c1)OCO2 | inactive: 1.02
60 | COc1ccc(S(=O)(=O)N(C)C[C@@H]2Oc3ccc(NC(=O)CCN4CCOCC4)cc3C(=O)N([C@H](C)CO)C[C@@H]2C)cc1 | inactive: 1.02
61 | C[C@@H]1CN([C@H](C)CO)C(=O)Cc2cc(NS(=O)(=O)c3ccccc3)ccc2O[C@@H]1CN(C)Cc1ccc(Cl)c(Cl)c1 | inactive: 0.997
62 | CC(C)CC#Cc1ccc2c(c1)O[C@@H](CN(C)C(=O)c1ccccn1)[C@@H](C)CN([C@@H](C)CO)S2(=O)=O | inactive: 0.985
